According to the supplement of paper PMC3334620:
Whole data set: some 33,000 sequences, median “E-score (-0.5 to 0.5)” near -0.04, cut for the highest 2% near 0.36. Some of the results follow.

target: T1, Hmlalpha2 (UniProt P0CY09); assay: PBM E-score (8-mer binding enrichment) (E-score (-0.5 to 0.5)); higher = stronger / more preferred TF binding; most listed sequences are background and not binding sites; settings: protein concentration: 200 nM; construct: GST-full length
T1 sequence: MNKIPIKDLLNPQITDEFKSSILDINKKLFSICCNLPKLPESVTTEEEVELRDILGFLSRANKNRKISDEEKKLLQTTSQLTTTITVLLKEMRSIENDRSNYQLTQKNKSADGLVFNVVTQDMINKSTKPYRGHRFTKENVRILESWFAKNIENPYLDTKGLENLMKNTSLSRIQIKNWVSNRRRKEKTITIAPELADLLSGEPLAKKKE
Summary of the method: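 Each ungapped eight-base word and its reverse complement, pooled, received an E-score from the Universal PBM Analysis Suite. Underlying scans, normalised with masliner, recorded fluorescent anti-GST bound to GST-tagged yeast transcription factors. These were applied at about 100-200 nM to universal all-10-mer Agilent arrays double-stranded by primer extension.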

| Sequence | PBM E-score |
| --- | --- |
| CCGGGTCC | -0.344 |
| AATTTAGA | 0.0535 |
| GATTATTA | 0.0539 |
| CGCCCACG | -0.172 |
| CCGCTGTA | 0.0278 |
| ACGACTCA | -0.146 |
| CAATCGCA | 0.0503 |
| TTAATTAA | 0.189 |
| ATGGGCCG | -0.24 |
| GTCACTTA | 0.0407 |
| GACGCATC | -0.0682 |
| CATAGGCA | -0.0253 |
| CGCCTAGA | -0.233 |
| GGTCCTAA | 0.00625 |
| TCCCCGAA | -0.307 |
| GGGAAGTA | 0.0183 |
| ATGGTGTC | -0.149 |
| ACGATTCC | -0.04 |
| CAATGGGA | -0.141 |
| GTTATTGA | 0.204 |
| ATGGTATC | -0.171 |
| ATTCGTCA | 0.0398 |
| ACCCTGAC | -0.269 |
| GGATCTGA | -0.247 |
| AGTGTGCG | -0.0715 |

| Sequence | PBM E-score |
| --- | --- |
| CCTTAGGC | -0.273 |
| AGTATCTA | 0.155 |
| CAATTGCG | -0.0486 |
| GTTCACTA | 0.0772 |
| CCCGTCGG | -0.175 |
| AATGTTCC | 0.0727 |
| AGGTCATC | -0.288 |
| GCCCCAAC | -0.086 |
| AGTCCGTA | -0.0328 |
| GAAGAGCC | -0.156 |
| CCCCTATC | -0.289 |
| ACTCGCAC | -0.214 |
| ACCGCACG | -0.0301 |
| ATATAGTG | -0.0585 |
| ACATAGCG | 0.262 |
| CTTTGCAC | 0.206 |
| CAGGAGAC | -0.0717 |
| GCATCCTA | -0.194 |
| ACAGCCTA | 0.11 |
| ATCAACTG | -0.0655 |
| AAGAGGTC | -0.319 |
| GCCGTTAA | 0.0461 |
| ATCCCAGG | -0.278 |
| CCAGTTAC | -0.106 |
| TGGCAAAA | 0.0108 |

| Sequence | PBM E-score |
| --- | --- |
| CCTAAAAA | -0.111 |
| ACCAGACT | -0.0501 |
| ATTTGTGG | -0.034 |
| ACAATTAT | 0.214 |
| ACGAAGTG | 0.115 |
| ATAAGCCG | -0.225 |
| GCGTTCAA | 0.199 |
| TCAAGTAA | 0.265 |
| CTTAAATC | 0.0146 |
| CTCGTTCA | 0.163 |
| ATCCGGGG | -0.186 |
| TAAAACTA | 0.194 |
| TGGCGACA | 0.0218 |
| AATTAACA | 0.425 |
| CTGCTTCC | -0.176 |
| CTATACGC | 0.199 |
| AGAAGTTC | 0.0192 |
| GTCGAAAA | 0.171 |
| ATAATGGC | 0.0247 |
| CAGTCCCA | -0.165 |
| CAACCTAG | 0.0593 |
| AGCCTGGG | -0.185 |
| AATGCTCC | -0.269 |
| CCATGCAA | 0.219 |
| AAAGCATT | 0.0558 |

| Sequence | PBM E-score |
| --- | --- |
| ACTGGCTG | -0.286 |
| ACAACTCC | -0.14 |
| GCGACTAC | 0.0703 |
| AACCCAGT | 0.0666 |
| CGATCTAA | 0.133 |
| GGGGGACC | -0.319 |
| CACTGCCA | -0.0577 |
| AAGGTGTA | 0.25 |
| CAAATCCG | -0.112 |
| CAATGGTC | 0.0502 |
| AAGGGAAG | 0.015 |
| AGAATACG | 0.192 |
| CACAACAG | 0.0709 |
| CTTGGTCC | -0.159 |
| GAACACAC | 0.158 |
| AACCGGGA | -0.142 |
| CAGCAGGA | -0.151 |
| TCAGTGCA | -0.0496 |
| AAAGGTTC | -0.148 |
| CCGGCAGA | -0.225 |
| CGGCGATC | -0.133 |
| GCGCCGGA | -0.196 |
| GCTTAACA | 0.378 |
| ATCGAGCC | -0.17 |
| CGGCCCCA | -0.352 |

| Sequence | PBM E-score |
| --- | --- |
| TAGTGGAA | -0.123 |
| CTCACATA | 0.0587 |
| TCGGTGCA | -0.0717 |
| CATGCATA | 0.251 |
| TGAAGGCA | -0.0513 |
| GTGCAGAA | 0.0502 |
| AGATTAGC | -0.0707 |
| AGAGACAG | -0.208 |
| CTTGCGAC | -0.285 |
| GCAGAGCA | -0.0388 |
| AACTCCAC | -0.0368 |
| AAGGTCAA | -0.0718 |
| GAGTCCTA | 0.0168 |
| ATAGGGTA | -0.184 |
| CTAGGATC | -0.114 |
| TAATTCCA | 0.144 |
| ATTTGGAA | 0.028 |
| GACCAGGC | -0.25 |
| ACGCTTAT | 0.0536 |
| CAATAGTA | -0.0178 |
| AAGTACTC | 0.022 |
| AAATCCAG | -0.00386 |
| GTTGTCCA | 0.194 |
| GTTCGTAA | 0.217 |
| AGAATGAT | -0.126 |

| Sequence | PBM E-score |
| --- | --- |
| CTTTAGTA | -0.0167 |
| AGCTGTGA | -0.0619 |
| TCGAGAGA | -0.135 |
| GCACGACA | 0.115 |
| AAAAGTCG | -0.175 |
| ACGGAATC | -0.0314 |
| GATTCTAC | 0.158 |
| GTGATTAA | 0.166 |
| AAACCAGT | -0.0439 |
| CGGCCGCA | -0.107 |
| CAATCTCA | 0.0269 |
| AACTCCAT | -0.0979 |
| AAACGCGT | 0.312 |
| GCGGTTCC | -0.14 |
| GCAGCCAC | -0.183 |
| ACCCTGTG | 0.156 |
| CCCGGTTA | -0.193 |
| ATACTCCA | -0.0446 |
| CGAACTCA | -0.111 |
| AGTTTGCG | -0.0236 |
| AATATTTC | 0.0665 |
| TAGGAGCA | -0.0738 |
| AAGAATGG | -0.179 |
| CTGCCCTA | -0.277 |
| CGATCGTA | 0.0592 |

| Sequence | PBM E-score |
| --- | --- |
| GATGTCGA | 0.126 |
| CTAAGCCC | -0.318 |
| AAGGTAAT | 0.231 |
| CTACCTAG | -0.122 |
| CGAGGGAC | -0.287 |
| AACTGGCG | -0.059 |
| CTACAAGC | 0.28 |
| CTCGTTCC | -0.204 |
| GGTAGCGA | -0.193 |
| ACAAAATG | 0.278 |
| ATACGCTG | 0.058 |
| ATTCTATA | 0.0707 |
| TCCTATCA | -0.172 |
| CATGGGCG | -0.0229 |
| GGACGAGA | -0.126 |
| CTAAGGTC | -0.156 |
| GCCTGAGA | -0.179 |
| AAGAACTC | 0.159 |
| TATACACA | 0.437 |
| GCAAGCAC | -0.0333 |
| ATGTCATG | 0.388 |
| CGTCACAA | 0.0504 |
